Source: PubChem BioAssay AID504339 (National Center for Advancing Translational Sciences (NCATS), 2011)
The campaign covered roughly 390,000 compounds. About 17,000 (4.4%) were called active. The shares of active, inactive and inconclusive entries below differ from those in the screen. Calls follow the shape of the dose curve; as a rule, active = well fitted inhibition curve with a large enough effect; inconclusive = small, poorly fitted or top-dose-only effect; inactive = no such curve, though single readings can be large or run the other way. Where the call is inconclusive, the potency comes from a doubtful curve fit.

Target: Lysine-specific demethylase 4A (Homo sapiens) (UniProt O75164)
UniProt O75164, sequence (O75164 whole entry, looked up, the tested form may be a part): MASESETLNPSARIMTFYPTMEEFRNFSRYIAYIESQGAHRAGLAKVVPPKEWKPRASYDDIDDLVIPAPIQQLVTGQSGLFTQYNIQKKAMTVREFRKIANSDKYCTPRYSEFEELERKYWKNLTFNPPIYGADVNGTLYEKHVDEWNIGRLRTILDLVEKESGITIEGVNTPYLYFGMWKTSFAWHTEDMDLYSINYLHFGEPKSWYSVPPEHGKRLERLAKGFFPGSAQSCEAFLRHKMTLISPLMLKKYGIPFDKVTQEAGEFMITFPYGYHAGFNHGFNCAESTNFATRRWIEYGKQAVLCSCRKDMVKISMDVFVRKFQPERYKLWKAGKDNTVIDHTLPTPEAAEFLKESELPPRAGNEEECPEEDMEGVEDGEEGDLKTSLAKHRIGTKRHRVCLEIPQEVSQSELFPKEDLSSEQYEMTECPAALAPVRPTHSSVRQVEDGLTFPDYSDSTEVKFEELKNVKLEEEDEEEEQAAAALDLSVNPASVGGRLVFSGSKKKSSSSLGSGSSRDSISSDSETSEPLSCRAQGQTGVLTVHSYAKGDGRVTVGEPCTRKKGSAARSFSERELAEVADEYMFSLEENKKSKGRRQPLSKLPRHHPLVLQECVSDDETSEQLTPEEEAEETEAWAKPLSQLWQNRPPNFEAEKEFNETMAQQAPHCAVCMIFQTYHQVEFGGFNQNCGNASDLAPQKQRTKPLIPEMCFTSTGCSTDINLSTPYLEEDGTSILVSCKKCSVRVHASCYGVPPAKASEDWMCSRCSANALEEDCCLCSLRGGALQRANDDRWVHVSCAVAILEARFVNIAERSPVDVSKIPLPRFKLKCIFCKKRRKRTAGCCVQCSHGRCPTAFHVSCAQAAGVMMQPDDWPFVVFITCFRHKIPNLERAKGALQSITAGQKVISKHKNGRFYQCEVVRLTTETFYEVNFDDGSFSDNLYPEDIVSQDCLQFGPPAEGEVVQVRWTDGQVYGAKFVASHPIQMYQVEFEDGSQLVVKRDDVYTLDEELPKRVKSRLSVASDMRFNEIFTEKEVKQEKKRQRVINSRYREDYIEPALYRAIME
Experiment: qHTS Assay for Inhibitors of JMJD2A-Tudor Domain; also: nearly all actives have a fitted effect of over 50% in size
Details: AlphaScreen JMJD2A-Tudor / H3K4me3 peptide binding; series mostly up to 114 µM
Potency is read from the fitted curve at half-maximal effect; tags tell the direction and shape of the fitted curve.

Potency, inactive:
COc1ccc(NC(=O)Nc2ccc(F)cc2)c(C)c1
COc1ccc(N(Cc2cccs2)C(=O)COc2cc(C)c(Cl)c(C)c2)cc1
Cc1cc(C(=O)OCC(=O)Nc2ccccc2C#N)c(C)o1
Cc1ccc(S(=O)(=O)NCc2ccccc2)cc1C(=O)NCC1CCCO1 (stereo not drawn)
O=S(=O)(c1cccs1)N1CCN(CCc2ccccc2)CC1
Cc1noc(-c2ccc(N(C)Cc3ccccc3)c([N+](=O)[O-])c2)n1
CCCCNC(=O)CSc1nc(-c2ccc(OC)cc2)cc(C(F)(F)F)n1
O=C(c1ccc(N2CCOCC2)c([N+](=O)[O-])c1)N1CCN(c2ccccc2)CC1
Cc1cccc(NC(=O)c2ccc(F)c(S(=O)(=O)NCc3ccc4c(c3)OCO4)c2)c1
CC(=O)Nc1ccc(NC(=O)CSCc2ccccc2Cl)cc1
CC(=NNC(=O)c1ccncc1)c1cccc(Cl)c1
CCc1ccc2oc(C(=O)Nc3cc(Cl)ccc3OC)cc(=O)c2c1
CCOC(=O)C1CCCN(CCC(=O)Nc2ccccc2)C1 (stereo not drawn)
O=C(Nc1ccc2nc(SCC(=O)N3CCCc4ccccc43)sc2c1)c1ccccc1F
O=C(CN1CCN(S(=O)(=O)c2ccc(F)c(Cl)c2)CC1)N1CCOCC1
Cn1c(-c2ccc(F)cc2)cnc1SCC(=O)Nc1ccccc1N1CCOCC1
CCCOc1ccccc1C1NC(=O)NC(C)=C1C(=O)OCCOC (stereo not drawn)
CCOC(=O)CC(=O)CSc1nc2c(cc1C#N)CCCCCC2
CCOc1ccc(C2C(C(N)=O)=C(C)Nc3nc(-c4ccc(OC)cc4)nn32)cc1 (stereo not drawn)

Potency, inconclusive:
Cc1cc(-c2ccc(/C=N/n3cnnc3)o2)c(C)c([N+](=O)[O-])c1 56.2 µM [inhibitor, partial curve]
Cc1ccc(NC(=O)CC(C)S(=O)(=O)c2ccc3c(c2)NC(=O)CO3)cc1C (stereo not drawn) 17.8 µM [inhibitor, full curve]
C=CCn1c(SCC(=O)c2ccc(O)c(O)c2)nnc1-c1cccc(C)c1 35.5 µM [inhibitor, full curve, poor fit]
COc1ccc2c(CNCCc3ccccc3)c(C(=O)O)n(Cc3cccc(F)c3)c2c1 56.2 µM [inhibitor, partial curve]
COc1ccc(Nc2cc(C(=O)NCc3ccccc3)c3ccccc3n2)c(OC)c1 22.4 µM [inhibitor, full curve]
Cc1ccccc1Nc1nc(Nc2ccccc2C)nc(SC2=NCCS2)n1 44.7 µM [inhibitor, full curve]
COC(=O)CCCC1=CC2=C(c3ccccc3)C(=O)C(C)(OC(=O)C3CCCC3)C(=O)C2=CN1c1ccc(OC)cc1 (stereo not drawn) 79.4 µM [inhibitor, single point]
O=C(O)CCSc1nnc(-c2ccccc2)n1-c1ccccc1 89.1 µM [inhibitor, partial curve]
O=C(CSc1nnc(NC(=O)C2CC(=O)N(c3ccc(F)cc3)C2)s1)NCc1ccco1 (stereo not drawn) 79.4 µM [inhibitor, partial curve]
Cc1c(C(=O)N(Cc2ccco2)Cc2cccs2)oc2ccccc12 3.55 µM [inhibitor, single point]
Cc1cccc(N=C2NN=C(c3c[nH]c4ccccc34)CS2)c1 50.1 µM [inhibitor, partial curve]
CCN1CC2=C(OC(N)=C(C#N)C2c2cccs2)/C(=C/c2cccs2)C1 (stereo not drawn) 28.2 µM [inhibitor, full curve]
CCn1c2ccc(F)cc2c2nnc(NN)nc21 79.4 µM [inhibitor, partial curve]
COC(=O)c1c(NC(=O)c2ccoc2C)sc2c1CCC2 89.1 µM [inhibitor, partial curve]
O=C(Oc1cccc(-n2cnnn2)c1)c1ccccc1 20 µM [inhibitor, full curve]
COc1cccc(CNCCc2c[nH]c3ccccc23)c1OCc1ccccc1F 56.2 µM [inhibitor, partial curve]
COc1cc(O)ccc1-c1nc2ccc(Br)cn2c1Nc1ccccc1C 12.6 µM [inhibitor, full curve]
CC(/C=N/n1c(-c2ccc(C)cc2)n[nH]c1=S)=C\c1ccco1 39.8 µM [inhibitor, single point]
Cc1cc(C)c2c(n1)sc1c(=O)n(-c3ccccc3)c(=O)[nH]c12 89.1 µM [inhibitor, single point]
CC1(C)SC(=S)N(/N=C/c2ccc(O)cc2)C1N(O)C(=O)Nc1ccc([N+](=O)[O-])cc1 (stereo not drawn) 79.4 µM [inhibitor, partial curve]
Cc1nnc(SCC(=O)Nc2sc3c(c2C(N)=O)CCC(C)C3)[nH]c1=O (stereo not drawn) 70.8 µM [inhibitor, single point]
Cc1nc(NC(=O)c2ccc(Cl)cc2)sc1Cc1ccc2c(c1)OCO2 28.2 µM [inhibitor, full curve]
CCn1cc(CN2CCc3c([nH]c4ccccc34)C2c2ccc(F)c(OC)c2)c(C)n1 (stereo not drawn) 39.8 µM [inhibitor, partial curve]
Cc1c(C(=O)N2CCCCC2)c(S(=O)(=O)NCc2ccccc2Cl)c(C)n1C 14.1 µM [inhibitor, full curve]
Cc1ccn2c(Nc3ccc4c(c3)OCO4)c(-c3ccc(C)o3)nc2c1 11.2 µM [inhibitor, full curve, poor fit]
Cc1ccc(CN2CCN(Cc3ccccc3-c3ccco3)CC2CCO)o1 (stereo not drawn) 89.1 µM [inhibitor, partial curve]
CCc1ccc(NCc2cc3ccc(OC)cc3n(CC(=O)Nc3ccccc3OC)c2=O)cc1 25.1 µM [inhibitor, partial curve]
COc1ccc(NC2=C(C(C)=O)C(c3ccc4c(c3)OCO4)C(C(C)=O)C(C)(O)C2)cc1 (stereo not drawn) 56.2 µM [inhibitor, partial curve]
CC1(C)CC(=O)C2=C(C1)NC1=C(C(=O)c3ccccc31)C2c1cccnc1 (stereo not drawn) 50.1 µM [inhibitor, partial curve]
Cc1cc(Cl)ccc1NC(=O)CS(=O)(=O)c1cccc2nsnc12 79.4 µM [inhibitor, partial curve]
CCOc1ccc(NC(=O)c2sc3nc4n(c(=O)c3c2C)CCCC4)cc1 70.8 µM [inhibitor, single point]
Cn1nc2c(c1C(=O)O)CCCC2 89.1 µM [inhibitor, single point]
CCc1ccc(C2=C(C)C(N3CCC(C(=O)Nc4ccc(F)cc4)CC3)=NS2(=O)=O)cc1 63.1 µM [inhibitor, partial curve]
Cc1cc(C)c2nc(N(CCCN(C)C)C(=O)c3ccc4c(c3)CCCC4)sc2c1 44.7 µM [inhibitor, partial curve]
O=[N+]([O-])c1ccc(NC(=S)N2CCN(S(=O)(=O)c3ccccc3)CC2)cc1 35.5 µM [inhibitor, partial curve]
O=C1/C(=C\c2cccnc2)CN(Cc2ccccc2)C/C1=C\c1cccnc1 17.8 µM [inhibitor, partial curve]
Cc1ccc(N2CC(C(=O)N3CCC(C(=O)NC(C)(C)C)CC3)CC2=O)cc1 (stereo not drawn) 0.708 µM [inhibitor, full curve]
Fc1ccc(-c2csc3ncnc(Cl)c23)cc1 20 µM [inhibitor, single point]
CCOc1ccc(NC(=O)CN(C)C(=O)c2ccc(N3CCCCC3)c([N+](=O)[O-])c2)cc1OCC 63.1 µM [inhibitor, partial curve]
COc1cccc(OCCNc2cc(Cl)ccc2[N+](=O)[O-])c1 22.4 µM [inhibitor, partial curve]
Cc1ccc(NC(=O)/C(CN(C)C)=N\O)cc1 22.4 µM [inhibitor, partial curve]

Potency, active:
Clc1ccc(OCCCN2CCCCC2)c(Br)c1 3.98 µM
C/C(=N\NC(=O)c1cc2ccccc2cc1O)c1ccccn1 17.8 µM
COC(=O)c1ccc(C(=O)OC)c(NC(=O)CSc2cccc[n+]2[O-])c1 44.7 µM
CCOC(=O)C1CCCCN1Cc1ccccc1C(F)(F)F (stereo not drawn) 4.47 µM
CCCOc1ccc(C(=O)Nc2cc(-c3nn4c(C)nnc4s3)ccc2C)cc1 39.8 µM
COc1cc(OC)c(CN2CCC(Cc3ccccc3)CC2)cc1Br 25.1 µM
Cc1ccc(-c2cc(C(=O)O)c3cc(Br)ccc3n2)o1 25.1 µM
CCn1c(-c2ccccc2)csc1=Nc1ccc(O)cc1 31.6 µM
COc1ccc(Cl)cc1NC(=O)CNCc1cccs1 4.47 µM
c1ccc2sc(SN3CCOCC3)nc2c1 39.8 µM
Cc1ccc(N2CSC3=C(C#N)C(c4cccs4)CC(=O)N3C2)cc1 (stereo not drawn) 31.6 µM
O=C1c2ccccc2C2=Nc3ccccc3SC(c3cccc(F)c3)C12 (stereo not drawn) 22.4 µM
COc1ccc(C)cc1Nc1nc(C)nc2c1oc1ccccc12 17.8 µM
